Measurements taken from PubChem BioAssay AID1671194 (National Center for Advancing Translational Sciences (NCATS), 2021).
Screen size: about 140,000 compounds; about 240 (0.17%) were called active. Inconclusive means that the source gave no clear call. Such entries were picked first, then a sample of the others. Calls follow the shape of the dose curve; as a rule, active = well fitted inhibition curve with a large enough effect; inconclusive = small, poorly fitted or top-dose-only effect; inactive = no such curve, though single readings can be large or run the other way. Where the call is inconclusive, the potency comes from a doubtful curve fit.

Assay: Primary qHTS assay for inhibitors of alpha-synuclein gene (SNCA) expression; also: nearly all actives have a fitted effect of over 45% in size;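 as to activity change, negative = inhibition: plate controls were DMSO cells for no effect and cell-free wells for full effect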
Settings: HEK-293 SNCA-luciferase knock-in, luminescence, 24 h; activity change, negative = inhibition: at 57.2 µM (top of the series) unless noted
Potency is read from the fitted curve at half-maximal effect; tags tell the direction and shape of the fitted curve.

| Structure (SMILES) | activity change, negative = inhibition | Potency |
| --- | --- | --- |
| COCCN1C(=O)CCc2cc(NC(=O)c3ccc(OC(F)(F)F)cc3)ccc21 | inactive: 51.5% | – |
| O=C(NCCc1ccccc1)c1ccc2c(c1)nc1n2CCOC1 | – | inconclusive: 10 µM [inhibitor, partial curve, poor fit] |
| C[S+](=O)([O-])N1CC2(CCCN(Cc3ccccn3)C2)Cc2ccccc21 (stereo not given) | inactive: -20.1% | – |
| COc1ccc(-c2nc(CSCC(=O)N3CCN(c4ccccc4F)CC3)c(C)o2)cc1 | – | inconclusive: 11.2 µM [inhibitor, partial curve] |
| Cc1ccc([S+](=O)([O-])N2CCCC(C(=O)N3CCC(N4Cc5cccn5C4=O)CC3)C2)cc1 (stereo not given) | inactive: -22.7% | – |
| O=C(CCS(=O)(=O)c1ccc(Br)s1)Nc1cc(C(F)(F)F)cc(C(F)(F)F)c1 | – | inconclusive: 14.1 µM [inhibitor, partial curve, poor fit] |
| COCCN1CC(CO)C2(CCN(Cc3cccc(Cl)c3F)CC2)C1 (stereo not given) | – | inconclusive: 7.94 µM [inhibitor, partial curve] |
| O=C(c1cc(C2CC2)nc2onc(C3CCNCC3)c12)N1CCC(F)CC1 | inactive: -11.3% | – |
| O=C(Cc1ccccn1)N1CCC(C(=O)N2CCCC2c2nc3ccncc3[nH]2)CC1 (stereo not given) | inactive: -4.25% | – |
| CS(=O)(=O)N1CCC(CC(=O)NCc2ccccc2)C1 (stereo not given) | inactive: 2.81% | – |
| O=S(=O)(c1ccccc1)N1CC(c2nc(-c3ccncc3)no2)C1 | inactive: 8.79% | – |
| Oc1cccc(-c2cc(-c3cccnc3)c3cncn3c2)c1 | – | inconclusive: 15.8 µM [inhibitor, single point] |
| COc1cccc(Cn2nnc3c(=O)[nH]c(C4CCCN(C(=O)c5ccccc5Cl)C4)nc32)c1 (stereo not given) | – | inconclusive: 4.47 µM [inhibitor, single point] |
| Cc1nc2cc(-c3cccc(F)c3)nn2c(C)c1CCC(=O)Nc1ccccc1C(N)=O | – | inconclusive: 3.98 µM [inhibitor, partial curve, poor fit] |
| Cc1ccc(NC(=O)Cn2c(=O)n(-c3ccccc3)c(=O)c3c2cc(C)n3C)cc1 | inactive: -4.67% | – |
| O=C1CC2(CCN(C(=O)C3CCCN(C(=O)Nc4ccc(Cl)cc4)C3)CC2)Oc2ccccc2N1 (stereo not given) | inactive: -18.1% | – |
| CC(C)n1cc(CN2CCCC2C(=O)Nc2cccc(-n3cccn3)c2)cn1 (stereo not given) | inactive: 3.57% | – |
| O=C(NC1CCN(c2cc(-c3cccs3)[nH]n2)C1)c1cccc(Cl)c1 (stereo not given) | inactive: -5.33% | – |
| CN(Cc1cccc(C(F)(F)F)c1)S(=O)(=O)c1cccs1 | inactive: -14.7% [at 87.6 µM] | – |
| O=C(NCC1CCN(Cc2cccc(Cl)c2)CC1)Nc1ccc(F)c(Cl)c1 | – | inconclusive: 28.2 µM [inhibitor, single point] |
| COc1cccc(CNC(=O)c2ccc(-n3c(C)cc4c3CCCC4)cc2)c1 | – | inconclusive: 17.8 µM [inhibitor, single point] |
| CC(C)OCCCN1C(=O)c2[nH]nc(-c3ccccc3O)c2C1c1ccccc1F (stereo not given) | – | inconclusive: 25.1 µM [inhibitor, partial curve, poor fit] |

| Structure (SMILES) | activity change, negative = inhibition | Potency |
| --- | --- | --- |
| O=C(c1cnccn1)N1C[C@@H]2OCC(=O)N(CC3CCCCC3)[C@@H]2C1 | inactive: -2.72% [at 87.6 µM] | – |
| COc1ccc(-c2cc(C(=O)NC3CC3)c3c(C4CCCN4)noc3n2)cc1 (stereo not given) | inactive: 26.5% | – |
| CCOc1ccc(NC(=O)CSc2c3c(nc4ccccc24)CCCC3)cc1 | – | active: 28.2 µM |
| COc1ccccc1Nc1ccnc(N2CCC(C(=O)NCc3cccs3)CC2)n1 | – | inconclusive: 1 µM [inhibitor, full curve, poor fit] |
| CCNc1cc(N2CCC(CCC(=O)NCCc3ccccn3)CC2)ncn1 | – | inconclusive: 1.41 µM [inhibitor, full curve, poor fit] |
| CC(C)(C)c1ccc(C(=O)N2CCCC(c3nc4c(nnn4Cc4cccc(F)c4)c(=O)[nH]3)C2)cc1 (stereo not given) | – | inconclusive: 39.8 µM [inhibitor, partial curve, poor fit] |
| CCOC(=O)c1ccc(NC(=O)Cn2nc3c(cc2=O)CCCCC3)cc1 | inactive: 4.99% | – |
| CCC(=O)N1CCc2sc(C(=O)N3CCN(c4cccc(Cl)c4)CC3)cc2C1 | inactive: -11.3% | – |
| O=S(=O)(N[C@H]1CO[C@H]2[C@@H]1OC[C@@H]2Nc1nccc(-c2ccc3c(c2)OCO3)n1)c1ccc2ccccc2c1 | – | inconclusive: 39.8 µM [inhibitor, single point] |
| CN(C)c1cc(=O)c2ccnc(-c3ccc(N4CCOCC4)cc3)c2o1 | inactive: 8.88% [at 87.6 µM] | – |
| Cn1cc(CN2CCCC2c2ccccn2)c(-c2ccc(Oc3ccccc3)cc2)n1 (stereo not given) | – | inconclusive: 22.4 µM [inhibitor, single point] |
| COCCn1c(C)cnc1CC1CCCN(C(=O)c2ccccn2)C1 (stereo not given) | – | inconclusive: 0.708 µM [inhibitor, full curve, poor fit] |
| COc1ccc(CN2CCCC3(CNc4ccccc4[S+](=O)([O-])N3)C2)cc1 (stereo not given) | inactive: 1.41% | – |
| CCCNC(=O)N1CCC(O)(c2csc(CN3CCN(C)CC3)n2)CC1 | inactive: -1.81% [at 87.6 µM] | – |
| O=C(Cn1cccc1-c1nc(-c2ccc(F)cc2)no1)NCCC1=CCCCC1 | – | inconclusive: 3.55 µM [inhibitor, single point] |
| Cc1ccccc1C(=O)N1CCC2(CC1)C(=O)N(c1cccc(F)c1)C2c1ccccc1 (stereo not given) | – | inconclusive: 22.4 µM [inhibitor, single point] |
| Cc1ccc(CN2CCC([C@@H]3CNC[C@H]3CO)CC2)s1 | – | inconclusive: 22.4 µM [inhibitor, partial curve] |
| COc1cccc(CCNC(=O)c2c(C)noc2-c2ccco2)c1 | inactive: -5.78% | – |
| COc1ccc(C(=O)N2CCn3c(nn(-c4ccc(Cl)cc4)c3=O)C2)cc1 | – | inconclusive: 3.16 µM [inhibitor, partial curve, poor fit] |
| CCOC(=O)COc1ccc(CC)cc1C(=O)c1ccn2nc(-c3ccc(C)cc3)cc2n1 | – | inconclusive: 39.8 µM [inhibitor, single point] |
| N#Cc1c(C(F)(F)F)cc(-c2cccs2)nc1SCC(=O)Nc1cccc(Br)c1 | – | inconclusive: 35.5 µM [inhibitor, single point] |
| O=C(NCCCN1CCN(c2ccccc2F)CC1)c1ccc2nc(Cc3ccccc3)oc2c1 | – | inconclusive: 39.8 µM [inhibitor, single point] |

| Structure (SMILES) | activity change, negative = inhibition | Potency |
| --- | --- | --- |
| O=C(NCc1ccc(Cl)cc1)C1CCN(C(=O)c2cnn(-c3ccccc3)c2-n2cccc2)CC1 | – | inconclusive: 39.8 µM [inhibitor, single point] |
| O=C(NCc1cccc(Cl)c1)c1ccc2nnc(-c3cccc(C(F)(F)F)c3)n2c1 | – | inconclusive: 39.8 µM [inhibitor, single point] |
| O=C(NCc1cn[nH]c1-c1ccc(F)cc1)C1COc2ccccc2C1 (stereo not given) | – | inconclusive: 10 µM [inhibitor, partial curve, poor fit] |
| CCn1ccc(C(=O)N2CCCC3(C2)Nc2cccnc2NC3=NCc2ccccc2)n1 (stereo not given) | – | inconclusive: 3.16 µM [inhibitor, single point] |
| CCC(C)NC(=O)c1ccc(Cn2c(=O)c3cccn3c3cccnc32)cc1 (stereo not given) | – | inconclusive: 2.51 µM [inhibitor, single point] |
| Cc1nn(C)c2c1c(-c1ccccc1)cc(=O)n2Cc1ccc(Br)cc1F | – | inconclusive: 3.16 µM [inhibitor, full curve] |
| O=C(CN1C(=O)C(c2ccccc2)=NC12CCCCCC2)NC1CCCCC1 | – | inconclusive: 7.08 µM [inhibitor, single point] |
| Cc1nn(C)c(C)c1-c1ccnc(NCC2CC(=O)N(C3CCCC3)C2)n1 (stereo not given) | inactive: -7.04% | – |
| CNC(=O)CCn1ncc2cc(OC3CCc4cccc(-c5ccccc5)c43)ccc21 (stereo not given) | – | inconclusive: 56.2 µM [inhibitor, single point] |
| Cc1nc(N2CCC(NC(=O)C(C)c3ccccc3)CC2)cc(C(F)(F)F)n1 (stereo not given) | – | inconclusive: 8.91 µM [inhibitor, single point] |
| Cc1cc(C(=O)Nc2cccc(C(F)(F)F)c2)c2c(C)nn(-c3cccc(F)c3)c2n1 | – | inconclusive: 35.5 µM [inhibitor, single point] |
| O=C(c1ccccc1Cl)N1CCC2(CC1)NC(=O)N(Cc1ccc(F)cc1)C2=O | – | inconclusive: 15.8 µM [inhibitor, partial curve, poor fit] |
| CNC(=O)c1[nH]nc2c1C(c1c(C)nc3ccc(Cl)cn13)CC(=O)N2 (stereo not given) | – | inconclusive: 15.8 µM [inhibitor, single point] |
| CCCCOc1ccc(NC(=O)c2cc3c(n(-c4ccc(Cl)cc4)c2=O)CCCC3=O)cc1 | – | inconclusive: 3.55 µM [inhibitor, single point] |
| COc1cccc(NC(=O)Cc2ccc(NC(=O)N3CCCCc4ccccc43)cc2)c1 | – | inconclusive: 39.8 µM [inhibitor, partial curve, poor fit] |
| Cc1ccc(N2C(=O)CSC23C(=O)Nc2ccccc23)cc1F (stereo not given) | – | inconclusive: 39.8 µM [inhibitor, single point] |
| O=C(Nc1cccc(-c2ccc(N3CCOCC3)nn2)c1)Nc1ccc2c(c1)CCC2 | inactive: 2.01% | – |
| Cc1cc2c(n1-c1ccc(C(=O)NCc3cccc(Br)c3)cc1)CCC(C)C2 (stereo not given) | – | inconclusive: 14.1 µM [inhibitor, partial curve] |
| C[C@@H]1C(=O)O[C@H]2[C@H]1CC[C@@]1(C)Cc3sc(NC(=O)CN(C)C)nc3[C@@H](C)[C@H]21 | inactive: -84% [at 87.6 µM] | – |
| Cc1cc(C[C@@H]2COC[C@@H]2NC(=O)Cc2c[nH]c(=O)n(C)c2=O)on1 | – | inconclusive: 12.6 µM [inhibitor, partial curve, poor fit] |
| CC(C)Nc1cc(N2CCN(C3CCCCC3)CC2)c2noc3c2c1C(=O)c1ccccc1-3 | – | inconclusive: 39.8 µM [inhibitor, single point] |
